Measurements taken from US20010029293A1 (ICOS, published 2001).

What was measured:
[1] = target: T1, αd/CD18 on transfected CHO cells (human, UniProt Q13349 18-1161; P05107); test: adhesion of transfected CHO cells to coated wells
T1 construct: whole, on cells; also called alpha d/CD18

[2] = target: T1, αd/CD18 on transfected CHO cells; test: flow cytometry, soluble chimera on transfected CHO cells

B1: VCAM-1/IgG chimera (Fc fusion, UniProt P19320 25-698, looked up)
chain: FKIETTPESRYLAQIGDSVSLTCSTTGCESPFFSWRTQIDSPLNGKVTNEGTTSTLTMNPVSFGNEHSYLCTATCESRKLEKGIQVEIYSFPKDPEIHLSGPLEAGKPITVKCSVADVYPFDRLEIDLLKGDHLMKSQEFLEDADRKSLETKSLEVTFTPVIEDIGKVLVCRAKLHIDEMDSVPTVRQAVKELQVYISPKNTVISVNPSTKLQEGGSVTMTCSSEGLPAPEIFWSKKLDNGNLQHLSGNATLTLIAMRMEDSGIYVCEGVNLIGKNRKEVELIVQEKPFTVEISPGPRIAAQIGDSVMLTCSVMGCESPSFSWRTQIDSPLSGKVRSEGTNSTLTLSPVSFENEHSYLCTVTCGHKKLEKGIQVELYSFPRDPEIEMSGGLVNGSSVTVSCKVPSVYPLDRLEIELLKGETILENIEFLEDTDMKSLENKSLEMTFIPTIEDTGKALVCQAKLHIDDMEFEPKQRQSTQTLYVNVAPRDTTVLVSPSSILEEGSSVNMTCLSQGFPAPKILWSRQLPNGELQPLSENATLTLISTKMEDSGVYLCEGINQAGRSRKEVELIIQVTPKDIKLTAFPSESVKEGDTVIISCTCGNVPETWIILKKKAETGDTVLKSIDGAYTIRKAQLKDAGVYECESKNKVGSQLRSLTLDVQGRENNKDYFSPE[human IgG1 Fc not spelt out]
B1: no binding [1].

B2: ICAM-1/IgG chimera (Fc fusion, UniProt P05362 28-480, looked up)
chain: QTSVSPSKVILPRGGSVLVTCSTSCDQPKLLGIETPLPKKELLLPGNNRKVYELSNVQEDSQPMCYSNCPDGQSTAKTFLTVYWTPERVELAPLPSWQPVGKNLTLRCQVEGGAPRANLTVVLLRGEKELKREPAVGEPAEVTTTVLVRRDHHGANFSCRTELDLRPQGLELFENTSAPYQLQTFVLPATPPQLVSPRVLEVDTQGTVVCSLDGLFPVSEAQVHLALGDQRLNPTVTYGNDSFSAKASVSVTAEDEGTQRLTCAVILGNQSQETLQTVTIYSFPAPNVILTKPEVSEGTEVTVKCEAHPRAKVTLNGVPAQPLGPRAQLLLKATPEDNGRSFSCSATLEVAGQLIHKNQTRELRVLYGPRLDERDCPGNWTWPENSQQTPMCQAWGNPLPELKCLKDGTFPLPIGESVTVTRDLEGTYLCRARSTQGEVTRKVTVNVLSPRYE[human IgG1 Fc not spelt out]
B2: no binding (tested: 5 µg/ml) [2].
